Assay results as given in publication PMC4336329 (PLoS ONE, 2015).
Out of some 310,000 compounds screened, about 14,000 (4.5%) showed an effect of 50% or more. Effects have a minus sign here. Some of the results follow.

What follows are compounds tested against human ether-à-go-go-related gene (hERG) potassium channel (human, UniProt Q12809) (assay: primary screen, population patch clamp on CHO cells stably expressing hERG).
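Also: peak tail current of the secondary pulse compared with the same well before compound.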

human ether-à-go-go-related gene (hERG) potassium channel, sequence (Q12809 whole entry, looked up): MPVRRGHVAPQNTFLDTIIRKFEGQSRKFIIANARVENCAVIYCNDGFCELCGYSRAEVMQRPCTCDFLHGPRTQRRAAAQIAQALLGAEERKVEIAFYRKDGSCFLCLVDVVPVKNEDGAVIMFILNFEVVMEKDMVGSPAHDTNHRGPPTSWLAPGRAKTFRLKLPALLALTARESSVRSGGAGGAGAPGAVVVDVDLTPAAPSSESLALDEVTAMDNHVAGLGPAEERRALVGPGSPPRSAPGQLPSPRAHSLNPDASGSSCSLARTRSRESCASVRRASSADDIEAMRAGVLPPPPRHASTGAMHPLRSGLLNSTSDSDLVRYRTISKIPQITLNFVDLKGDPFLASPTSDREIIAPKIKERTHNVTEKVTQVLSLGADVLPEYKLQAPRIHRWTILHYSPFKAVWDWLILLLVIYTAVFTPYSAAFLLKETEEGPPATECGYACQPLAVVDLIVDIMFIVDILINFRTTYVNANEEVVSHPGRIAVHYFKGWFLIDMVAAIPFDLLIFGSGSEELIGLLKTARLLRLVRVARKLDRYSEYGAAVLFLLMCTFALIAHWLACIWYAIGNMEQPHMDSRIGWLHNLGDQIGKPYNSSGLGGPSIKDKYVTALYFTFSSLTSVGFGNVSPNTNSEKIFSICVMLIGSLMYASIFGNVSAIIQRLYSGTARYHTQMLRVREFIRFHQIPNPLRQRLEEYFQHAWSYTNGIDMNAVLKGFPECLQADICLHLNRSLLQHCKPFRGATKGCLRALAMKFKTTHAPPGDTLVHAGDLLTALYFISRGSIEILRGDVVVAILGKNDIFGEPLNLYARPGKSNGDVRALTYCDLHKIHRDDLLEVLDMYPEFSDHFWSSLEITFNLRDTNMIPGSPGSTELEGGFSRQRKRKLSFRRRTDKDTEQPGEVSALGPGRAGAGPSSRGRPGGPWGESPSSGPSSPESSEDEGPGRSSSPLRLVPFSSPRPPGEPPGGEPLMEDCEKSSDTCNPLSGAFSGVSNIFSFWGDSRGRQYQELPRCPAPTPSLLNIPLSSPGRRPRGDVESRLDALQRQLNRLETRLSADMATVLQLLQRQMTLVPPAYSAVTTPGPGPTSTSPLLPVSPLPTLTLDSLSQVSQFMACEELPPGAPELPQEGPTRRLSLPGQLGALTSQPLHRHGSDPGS

Structure (SMILES)	hERG current change (%, negative = inhibition) at 10uM
C=CCn1c(CNS(=O)(=O)c2ccc(Br)cc2)n[nH]c1=S	14.9%
O=C1OCC2=C1C(c1ccc(Cl)cc1)CC(=O)N2c1ccc(F)cc1 (stereo not drawn)	-17.9%
COc1cc(OC)cc(C(=O)NC(C(=O)NNC(=O)c2cc(Cl)ccc2OC)C(C)C)c1 (stereo not drawn)	2.89%
CCOC(=O)C1=C(O)/C(=C\c2cc(C)n(-c3ccc(F)cc3)c2C)N=C1C	7.21%
CC(C)(C)NC(=O)NC12CC3CC(CC(C3)C1)C2	21.3%
C=CCn1c(Cc2c[nH]c3ccccc23)nnc1SCC(=O)NCc1ccccc1	-12.9%
COCCN1C(=O)N[C@@H](c2ccccc2)[C@H](C(=O)OC)[C@H]1C	13.7%
COCCOc1ccc(C(F)(F)F)cc1NC(=O)c1ccccc1	-10.9%
CC(C)C(C)NC(=O)COC(=O)C1CCN(S(=O)(=O)c2ccc3c(c2)OCCO3)CC1 (stereo not drawn)	-5.52%
COC(=O)C(Cc1ccccc1)NC(=O)CSc1nc(N)cc(=O)[nH]1 (stereo not drawn)	22.9%
Nc1nc(NCCOCCO)nc(NCc2ccccc2)c1[N+](=O)[O-]	-1.49%
c1csc(C2=Nn3c(nnc3-c3ccncc3)SC2)c1	-13.5%
CN1CCC(=NNC(=O)C(=O)Nc2ccc(F)cc2)CC1	12.8%
Cc1cc(C)n(S(=O)(=O)c2ccc(C(C)(C)C)cc2)n1	-16.1%
Cc1ccc(NCC(=O)N/N=C/c2ccc(OC(=O)c3ccco3)cc2)cc1	1.76%
COc1ccc(N2CCN(CCNS(=O)(=O)c3ccc(C)cc3)CC2)cc1	-13.5%
CC(=O)NCCc1nc2ccccc2[nH]1	-0.964%
COc1ccc(CC(=O)N(C)Cc2ccc(Cl)cc2)cc1S(=O)(=O)N1CCOCC1	-31.1%
CCCCc1cc(=O)oc2cc(C)cc(OC(C)C(=O)NCc3ccccn3)c12 (stereo not drawn)	-4.28%
COc1cccc(OC)c1OCC(O)CN1CCN(c2ccc(F)cc2)CC1.Cl (stereo not drawn)	-74.9%
Cc1cccc(Oc2ncc(-c3ccc(Cl)cc3)cn2)c1C	6.01%
Cc1ccc(CCNC(=O)C2CCN(S(=O)(=O)c3ccc4nc5c(c(C(=O)O)c4c3)CCCC5)CC2)cc1	1.85%

Structure (SMILES)	hERG current change (%, negative = inhibition) at 10uM
COCCSc1nnc(NC(=O)CSc2ccccc2)s1	2.04%
CC1(C)CC(=O)C=C(Nc2ccc(F)c(Cl)c2)C1	-0.34%
COC(=O)c1sccc1NC(=O)CSCCc1ccncc1	-23.4%
O=C(NCCO)C(=O)Nc1cc2c3c(c1)CCN3C(=O)CC2	15%
CN(C(=O)CSc1nc(-c2ccccc2)c(-c2ccccc2)o1)C1CCS(=O)(=O)C1 (stereo not drawn)	-36.5%
CCC(=O)Nc1cccc(NC(=O)c2ccc3c(c2)OCCO3)c1	2.17%
Cc1c(NC(=S)NC(=O)c2ccc(Cl)cc2)c(=O)n(-c2ccccc2)n1C	-17.2%
C/C(=N/N=C/c1ccccc1O)c1ccccc1O	23.6%
Cc1ccc(S(=O)(=O)CCc2nc3ccccc3s2)cc1C	-8.3%
N#CCCN(C(=O)COC(=O)CCC(=O)c1ccc(F)cc1)c1ccccc1	-21.9%
CCN(CC)S(=O)(=O)c1cccc(NC(=O)COC(=O)/C=C/c2ccco2)c1	-36.2%
O=C1CN(c2nc(-c3ccccc3)c3ccccc3n2)c2ccccc2N1	14.5%
CCc1ccc(N2CC(C(=O)Nc3ccc(F)cc3)CC2=O)cc1 (stereo not drawn)	25.1%
CC(C)/C=C/C(=O)N1CCC(N2CCC(C(=O)NCc3ccccn3)CC2)CC1	11.2%
CCOC(=O)C1=C(O)/C(=C/c2cc(OC)c(OC)c(OC)c2)N=C1C	6.39%
O=C(Cn1nc(-c2ccccc2F)ccc1=O)NCc1ccc2c(c1)OCO2	-36.9%
O=C(/C=C/c1ccc(Cl)cc1)NC(=S)Nc1ccc(NC(=O)c2ccco2)cc1	2.52%
O=C(N/N=C/c1c[nH]c2c1ccc1ccccc12)c1ccc([N+](=O)[O-])cc1	10.8%
Cc1ccc(S(=O)(=O)N2CC(C)N(C(=O)N3CCOCC3)C2C)cc1 (stereo not drawn)	27.6%
O=C(O)c1ccc(CNCc2cccc(Oc3ccccc3)c2)cc1	4.98%
COc1ccc(Cc2nnc(N/N=C/c3ccc(N(C)C)cc3)[nH]c2=O)cc1OC	29.1%
COc1ccc2[nH]c(-c3ccc(C)cc3)cc(=O)c2c1	16.6%

Structure (SMILES)	hERG current change (%, negative = inhibition) at 10uM
COc1ccccc1CC(=O)N1CCN(c2ccccc2)CC1	9.19%
Cc1ccc(-n2c(=O)[nH]c3ncccc3c2=O)cc1	30.2%
CC(C)(C)N1C(=O)[C@H]2[C@@H](c3ccc(Br)cc3)N3C(=O)N(c4ccccc4)C(=O)[C@@]3(Cc3ccccc3)[C@H]2C1=O	-0.289%
C=CCn1cc(C(=O)NCc2ccc(Cl)cc2)c(=O)c2cc(S(=O)(=O)N(CC)CC)ccc21	-22.5%
Cc1c(C(=O)N2CCCC2)sc(NC(=O)c2ccco2)c1C#N	10.4%
Cc1ccc(C(=O)N/C(=C/c2ccc(C(C)C)cc2)C(=O)NCCCN2CCOCC2)cc1	-65.8%
Cc1ccc(N(CC(O)Cn2nc(C)cc2C)S(=O)(=O)c2ccc3ccccc3c2)cc1 (stereo not drawn)	-3.22%
O=C(Cn1nc(C(=O)O)c2ccccc2c1=O)Nc1ccc(F)cc1	8.44%
CCOC(=O)c1c(C)c(C(=O)NCc2cccnc2)c(C)n1C	-1.16%
Cc1cc(N2CCN(CC(O)C(F)(F)F)CC2)c2ccccc2n1 (stereo not drawn)	-40.7%
c1cc2c(cc1-c1[nH]ncc1CN1CC3C[C@@H]4CC1C[C@H](C3)C4)OCO2	-44.3%
CCN1CCN(C(=O)/C=C/c2ccc(C(C)C)cc2)CC1	-35.2%
CCN(CC)c1ccc(NC(=O)C2CC(=O)N(Cc3ccccc3)C2)cc1 (stereo not drawn)	-6.71%
CC1(NC(=O)c2cccc(S(=O)(=O)N3CCN(c4ccccc4)CC3)c2)CCS(=O)(=O)C1 (stereo not drawn)	-23.1%
Cc1ccc(-c2nn(-c3ccccc3)cc2/C=C(\C#N)c2cccc(C#N)c2)o1	7.07%
CCC(=O)Nc1nnc(S(=O)(=O)N(C)c2cc(C)cc(C)c2)s1	13.3%
CCNC(=O)C(Sc1ccccc1)c1ccccc1 (stereo not drawn)	7.43%
COc1ccc(-n2nc(C(=O)NCC(=O)NCC3CCCO3)c3ccccc3c2=O)c(OC)c1 (stereo not drawn)	-9.52%
Cc1cc(C)cc(N(C(=O)c2csnn2)C(C(=O)NC(C)(C)C)c2ccccn2)c1 (stereo not drawn)	14.4%
Cc1ccc(N(CC(=O)Nc2ccccc2-c2ccccc2)S(=O)(=O)c2ccccc2)c(C)c1	-5.82%
Cc1cccc(NS(=O)(=O)c2ccc3[nH]c(=O)[nH]c3c2)c1C	13.7%
COCCCn1c(=O)c2ccccc2n(CC(=O)NC2CCCC2)c1=O	21.2%

Structure (SMILES)	hERG current change (%, negative = inhibition) at 10uM
NS(=O)(=O)c1ccc(Nc2nc(-c3ccc(F)cc3)cs2)cc1	13.4%
CC(=O)Nc1ccc(Nc2cc(C)nc3ccccc23)cc1	-7.21%
Cn1c(=O)c2cn(-c3cccc4ccccc34)cc2n(C)c1=O	6.99%
COc1ccc(C(=O)Nc2nnc(-c3ccccc3)s2)cc1	11.7%
NC(=O)C1CCN(C(=S)c2cccs2)CC1	6.97%
O=C(O)C1C2C=CC(C2)C1C(=O)N1CCN(CCO)CC1 (stereo not drawn)	9.13%
CCN1CCN(C(=S)c2ccc(Cl)cc2)CC1	-16.4%
COc1ccccc1C(=O)NCC(=O)Nc1cccnc1	20.5%
c1cncc(-c2nnc(-c3ccco3)o2)c1	1.52%
Cc1ccc2cc(CCNC(=O)C(C)(C)C)c(=O)[nH]c2c1	7.16%
COc1cccc(OC)c1C(=O)Nc1ccc(S(=O)(=O)Nc2ncccn2)cc1	8.01%
O=[N+]([O-])c1cccc(CSc2ncnc3ccccc23)c1	10.9%
CCOC(=O)C1CCN(C(=O)C(CCSC)NC(=O)COc2ccccc2)CC1 (stereo not drawn)	-37.3%
Cc1cc(Cl)c(O)c(-n2nc3ccccc3n2)c1	-10.6%
Cc1ccc(Cn2nnc3c(=O)n(CC(=O)c4ccccc4)cnc32)cc1	-0.591%
Cc1ccc(CNC(=O)c2cc(-c3cc(C)cc(C)c3O)n[nH]2)cc1	16.3%
O=C(NC1CCOc2ccccc21)c1ccc(Cl)nc1 (stereo not drawn)	11.2%
COc1ccc(C(=O)Nc2cccc(NC(=O)c3ccc(OC)c(OC)c3)n2)cc1OC	1.59%
Cc1nc(-c2ccccc2)nc2n[nH]c(N)c12	16.2%
Cc1ccc(S(=O)(=O)NC2=NCN(C3CCCCC3)CN2)cc1	9.39%
COCCCNC(=O)c1c(NC(=O)c2ccccc2Cl)n(Cc2ccccc2)c2nc3ccccc3nc12	6.73%
